# Assay results taken from PMC12136788.
# Some of the results follow.
# B1: chr12:120444061:120444162:-|3pUTR|ENSG00000170855|unk|total|mutant (ssRNA)
# RNA: GGGAGUUCUACAGUCCGACGAUCAAUUGUCAACCUGCAUAUCCUAAAAAUGUCAAAAUGCUGCAUCUGGUUAAAUGUCGGGGCCGGGGGGAAGCUGAAGGUGCUCGCUUCAUUUGCCUUGUUUACUCAUCCUGCCCUGUAAUGCAACAGAGGAUUGAGCAUCA
# B2: chr3:66380370:66380471:-|CDS|ENSG00000144749|msi1|total|mutant (ssRNA)
# RNA: GGGAGUUCUACAGUCCGACGAUCCGGUCAAGUGGGGGUCUGACAGGUUCGUUCUUUCCUUGCCGGGGAUUCUUCCUGGACUUCCGCAAGGUUGUAUCACCCGGACUCCACAGAGCUACAGCCUGCAUCUUCAUUAACUUCAGGCAACAGAGGAUUGAGCAUCA
# B3: chrY:12776687:12776788:+|CDS|ENSG00000114374|msi1|total|mutant (ssRNA)
# RNA: GGGAGUUCUACAGUCCGACGAUCGUUUUUGAUGGUGACAAAAACAGCAUUAAUUGUGCAAGACAAGAAGCCAUUCGAAUGGUCCGAGUAUUAACUGUUAUAAAAGAGUACAUUAAUGAAUGUGACAGUGAUUAUCACAAGGAACAACAGAGGAUUGAGCAUCA
# B4: chr9:136477283:136477384:-|CDS|ENSG00000148396|msi1|FALSE|unique (ssRNA)
# RNA: GGGAGUUCUACAGUCCGACGAUCGCCCCCGCAGGGUUUUCUCAGCACCCCGGUUUGCUUGUUCCUCACACACAUGCCAGAGAUAGCUCUCAGGGACCCUGUGAGCCCCUGCCUGGACCUCUGACACAGCCCAGAGCACAUGCCCAACAGAGGAUUGAGCAUCA
# B5: chr1:162523450:162523604:+|3pUTR|ENSG00000152332|msi1|FALSE|unique (ssRNA)
# RNA: GGGAGUUCUACAGUCCGACGAUCAGACUAAGUUGUGCCAGAUGUAAAUCAACCCCUCUUUUAGUUUACUUUAGACUUUGUAUUAGCUCAUCUUUUUUGUAGUAAAUCUAUAGUUUUAAGGUUUCUCAAGAUGUGGCUCUACCUCAACAGAGGAUUGAGCAUCA
# B6: ENSG00000107863:be:win_2701|CDS|ENSG00000107863|bound_else_gene|NA|bound_elsewhere_windowed (ssRNA)
# RNA: GGGAGUUCUACAGUCCGACGAUCUCUAGUCUGAAGGGAAUCAAGAUCGCAGACAGCCAAAAGUCAUCAGAAGACUCUGGGUCCAGAAAAGAUUCUUCCUCAGAGGUCUUCAGUGAUGCUGCCAAGGAAGGGUGGCUUCAUUUCCAACAGAGGAUUGAGCAUCA
# B7: ENSG00000107863:be:win_4201|CDS|ENSG00000107863|bound_else_gene|NA|bound_elsewhere_windowed (ssRNA)
# RNA: GGGAGUUCUACAGUCCGACGAUCAAGGAUCAGUAUAGCAGGGAACUGCUUGUGUCCUCCAUCUUUGCAGCUGCUAGUCGCAAGAGGAAGAAGCCGAAAGAAAAAGCACAGCCUAGCAGCUCAGAAGAUGAACUGGACAAUGUACAACAGAGGAUUGAGCAUCA
# B8: chr5:160402147:160402258:-|3pUTR|ENSG00000164609|unk|FALSE|unique (ssRNA)
# RNA: GGGAGUUCUACAGUCCGACGAUCAUGGUUUACAUUACCGUUUGUUUUCAUUGUGAUUGCCCCUAUGUAACAAUCAUGAAUAUUAGAUUUUUUAAAUUGUAGAAUAUCCUAAUAUUUAUAGCCAGCAGCUGUUACUUUGUUUGUCAACAGAGGAUUGAGCAUCA
# B9: chr1:35359206:35359314:+|CDS|ENSG00000146463|unk|total|mutant (ssRNA)
# RNA: GGGAGUUCUACAGUCCGACGAUCAAAGACUUUCCUAAACAAUUUGAUCAGGUUUCUGUCUUUAAAUCAAUACGGAAAGAUUUCCGUCCCGUAAGAGAAAACAGCAAAGAGACAUUUUCUGGAAAGGAGAAAAACCGAGACCUACAACAGAGGAUUGAGCAUCA
# B10: chr10:68791452:68791550:+|3pUTR|ENSG00000060339|msi1_unk|total|mutant (ssRNA)
# RNA: GGGAGUUCUACAGUCCGACGAUCCCCGCCUUCAAAUUAUUAAACACUCCUUGAGUGAAAUAAUUUUGCAUUGCAAAGUGUUUCCGGAUGAACUUUGUUACCGUUUUAACUCCAAUAAAGUUCAUCAGUUUAAUUGACUGCCGUCAACAGAGGAUUGAGCAUCA
# B11: chr2:105361111:105361195:-|3pUTR|ENSG00000115641|msi1_unk|FALSE|overlapping (ssRNA)
# RNA: GGGAGUUCUACAGUCCGACGAUCCUUUCUCACCCAGGCAAUCUUGCCUUCUGGUUUCUUCCAGCCACAUUGAGACUUUCUUCUAGUGCUUUUCAGUGAUACUCACGUUUGCUUAAACCCUUUAGUGCUUUGUGAUAGUUCAGUCAACAGAGGAUUGAGCAUCA
# B12: chr4:7762510:7762611:-|3pUTR|ENSG00000196526|msi1|FALSE|unique (ssRNA)
# RNA: GGGAGUUCUACAGUCCGACGAUCGUGCAAUAUUUCUUGGAGAAUUUGGAUGCCUAAGGCAUAAAGGAAAAAAACAGAGUUCAUAGUUUGAGCUGGUAUUUACCCCCUGGGUUUAAAAAUCAGAUUAACUUCUUGGUCUCCCGGCAACAGAGGAUUGAGCAUCA
# B13: chr17:19904301:19906232:-|three_prime_utr|ENSG00000108599|control|control|control (ssRNA)
# RNA: GGGAGUUCUACAGUCCGACGAUCAACAGCACUAUAUUUCUGAUCUGUCACUGUUGUUUCCAGGAGAGAAUGGGAGACAAUCCUAGACUUCCACCAUAAUGCAGUUACCUGUAGGCAUAAUUGAUGCACAUGAUGUUCACACAGCAACAGAGGAUUGAGCAUCA
# B14: chr10:103302795:103303961:-|three_prime_utr|ENSG00000156374|control|control|control (ssRNA)
# RNA: GGGAGUUCUACAGUCCGACGAUCGUCUGCUUGUCCUUCAUUAUGGUCUUGUGGUUUCUCCUCUGAAGAUAACUUGAAGAUUCUAGGCACAUUAUGAGGAGGGAAACAAAGGAGGCUUCUGCAGGACUGCAUCUCACCAAAGAUCAACAGAGGAUUGAGCAUCA
# B15: ENSG00000198589:be:win_2851|CDS|ENSG00000198589|bound_else_gene|NA|bound_elsewhere_windowed (ssRNA)
# RNA: GGGAGUUCUACAGUCCGACGAUCUCUUCAACUUCAGUUCAAGCAGCCUCUGGCAUUAGAAGGGAUAUUAAUGUUUCAGUAGGAUCCCAGCAACCAGAUACGAAGGAUUCUCCUGUCUGUCCUCAUUUCACCACAAAUGGUAAUCAACAGAGGAUUGAGCAUCA
# B16: chr11:62888716:62888817:+|3pUTR|ENSG00000168003|unk|FALSE|unique (ssRNA)
# RNA: GGGAGUUCUACAGUCCGACGAUCUUUUCUCUUUUUUAAAAACAAACAAACAAACUGUUGCAGAUUAUGAGUGAACCCCCAAAUAGGGUGUUUUCUGCCUUCAAAUAAAAGUCACCCCUGCAUGGUGAAGUCUUCCCUCUGCUUCAACAGAGGAUUGAGCAUCA
# B17: chrX:149548394:149548910:-|CDS|ENSG00000283697|control|control|control (ssRNA)
# RNA: GGGAGUUCUACAGUCCGACGAUCGCUACUACCUGGAUGGAAGGCACAGGGAUUCUUAGUAGUCUGGUUUACUCAGAUAAUGGUAGUGUAAUGUCUUUGUACAAUAUCUGUUACUAUGCUCUGUUGGCCUCCCUCUCAGUCAUGCAACAGAGGAUUGAGCAUCA
# B18: chr18:31624441:31624542:-|3pUTR|ENSG00000118276|unk|total|mutant (ssRNA)
# RNA: GGGAGUUCUACAGUCCGACGAUCAUUAAAUAUUCUAUUUUUAUAAAGAUAAAUACUCCGCCGAUAAAAACAAAUUUUAAGUUCCGUUUUCAGACACCGAAUUUCACUUUUGGAGGGGACCCUUGAAUGUCCGUUUCAUUCAAACAACAGAGGAUUGAGCAUCA
# B19: chr12:109281406:109281799:-|CDS|ENSG00000139445|control|control|control (ssRNA)
# RNA: GGGAGUUCUACAGUCCGACGAUCCGCCCUGCCGGACCUCAGCCCCAGCCCGCUCCCCCACCCCGCCAUGGGAAGGGCUCCUGUAGACUUCAUCAACAUCAGCACCGACAUGAACACUGAGGUGGAUGCCCUCGACCCGAGCAUCAACAGAGGAUUGAGCAUCA
# B20: chr1:27370145:27370587:-|three_prime_utr|ENSG00000142748|control|control|control (ssRNA)
# RNA: GGGAGUUCUACAGUCCGACGAUCCCAGUGCUGCCACUGCCCCCAUGAAUGACCCAGGGCAAUCCUGUCUCCUCUGUGGGCCUUAGUUUCCGCAUCUGAGAAAUGGCAAUCAUGAAACAGGAUGGUGCAACAGUGAAGAAUUUGCAACAGAGGAUUGAGCAUCA
# B21: chr4:177362735:177362840:+|3pUTR|ENSG00000109674|unk|FALSE|unique (ssRNA)
# RNA: GGGAGUUCUACAGUCCGACGAUCAAAGUGUUUUUAGUAUGCUUUUAGUCUCUUGUAACUGGGGAGAAGCAGUGUUUUUUUUUUAGGAAAGGAUUAUGCGACACAAUAAAAUAAGAUAUUCUGUCUGUAGUGAAUACAUUUCUCCAACAGAGGAUUGAGCAUCA
# B22: chr10:70435285:70435983:-|CDS|ENSG00000156574|control|control|control (ssRNA)
# RNA: GGGAGUUCUACAGUCCGACGAUCCAGGCCUCUCUCCAAGUGGCUGAAGCACCCUGGGGCCCUGGAGAAGCAGAUGUCCAGGGUAGCUGGAGAGUGCUGGCCGCGGCCCCCCACACCGCCUGCCACCAAUGUGCUCCUUAUGCUCAACAGAGGAUUGAGCAUCA
# Target: MSI1 full-length (mouse, UniProt Q61474 1-362)
# Experiment: nsRBNS (natural sequence RNA bind-n-seq); RBNS binding buffer (assumed for nsRBNS): 25 mM Tris pH 7.5, 150 mM KCl, 3 mM MgCl2, 0.01% Triton X-100, 500 ug/ml BSA, 20 U/ml SUPERase-In, 4 C; UNK is unkempt and MSI1 is Musashi-1; names of the RNAs are library labels; protein concentration not given here; high values mean tight binding
# UniProt Q61474, sequence (Q61474 whole entry): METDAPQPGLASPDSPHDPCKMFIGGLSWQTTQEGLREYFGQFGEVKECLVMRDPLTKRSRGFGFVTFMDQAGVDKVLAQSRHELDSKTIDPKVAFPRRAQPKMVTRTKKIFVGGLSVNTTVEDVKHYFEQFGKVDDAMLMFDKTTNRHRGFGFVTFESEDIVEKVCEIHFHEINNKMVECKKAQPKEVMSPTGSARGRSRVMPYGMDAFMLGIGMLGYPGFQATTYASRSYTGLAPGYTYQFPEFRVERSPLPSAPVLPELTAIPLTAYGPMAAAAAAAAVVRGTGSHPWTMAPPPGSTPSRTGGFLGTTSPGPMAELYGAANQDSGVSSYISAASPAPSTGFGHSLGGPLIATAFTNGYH
row,Binder,binding signal [enrichment R]
1,B1,0.436
2,B2,0.394
3,B3,0.375
4,B4,0.519
5,B5,19.3
6,B6,0.382
7,B7,0.381
8,B8,10.2
9,B9,0.189
10,B10,0.22
11,B11,1.08
12,B12,0.306
13,B13,1.13
14,B14,0.569
15,B15,0.436
16,B16,0.351
17,B17,0.604
18,B18,1.16
19,B19,0.554
20,B20,0.414
21,B21,5.5
22,B22,0.685
